Here are results for four molecules from PubChem BioAssay (NCI).

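These data come from cells grown in 96-well plates and exposed to compound for 48 hours at five concentrations. Abbreviation: GI50, concentration required for 50% inhibition of growth.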 Some entries of the source have several records that differ or are many. The list is limited to them. An entry can have further records. For part of these data: Results that share an entry are repeated measurements in other runs, samples, wells, individuals or studies. A tag in brackets gives the origin of a value. The letters are not those of the source and start again with each entry.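 Definition used: TGI = concentration required for complete inhibition of growth.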 For part of these data: A record mostly stands for its own series of concentrations, which the source does not state; a value can be the end of its range. *1 amine or outer side, *2 acyl side, *3 side chain or, on linkers, in order; H or OH if unused. Where a SMILES comes first, the peptide text is derived from it. Bridges are numbered along the chain shown (N, C = ends). [ ]: non-standard residue; d: D form. ξ: configuration not given here. X4 = CCC(C)C(N[*:1])C(O)CC(=O)O[C@H](C(=O)C(C)C(=O)[*:2])C(C)C; NMeY = CN[C@@H](Cc1ccc(O)cc1)C(=O)O; ξNMeL = CNC(CC(C)C)C(=O)O; ξT = CC(O)C(N)C(=O)O

Among the test systems are CCRF-CEM leukemia; MALME-3M melanoma; SK-MEL-2 melanoma; HCT-15 colon; HOP-62 NSCLC; PC-3 prostate; MDA-MB-231 breast; SF-295 CNS; SN12C renal; HCT-116 colon; COLO 205 colon; NCI-H460 lung; DU-145 prostate; MCF7 breast; T-47D breast; RPMI-8226 leukemia; UO-31 renal; A498 renal.
Common to all, as to assay: NCI tumour cell line growth inhibition, 48 h

On to `CC(=O)OCC1OC(n2c(-c3ccccc3)cc(-c3ccco3)c(C#N)c2=O)C(OC(C)=O)C(OC(C)=O)C1OC(C)=O` (stereo unspecified), for which the GI50 in the assay with CCRF-CEM leukemia was > 100 µM [sample A, 1 test] and 6.16 µM [sample B, 1 test].

On to `CSC1SCC2C(=O)N(C)C3(CC3C)C(=O)OCC(NC(=O)c3nc4ccccc4cc3O)C(=O)NC(C)C(=O)N(C)C1C(=O)N(C)C1(CC1C)C(=O)OCC(NC(=O)c1nc3ccccc3cc1O)C(=O)NC(C)C(=O)N2C` (stereo unspecified), for which the TGI was < 0.1 nM and 298 nM in the assay with MALME-3M melanoma; < 0.1 nM and 266 nM with SK-MEL-2 melanoma; 353 nM and > 100 µM in the assay on HCT-15 colon; < 0.1 nM and 31 nM with HOP-62 NSCLC; 0.226 nM and 28.2 nM with PC-3 prostate; 0.143 nM and 13.1 µM in the assay on MDA-MB-231 breast. For the same molecule, the TGI with SF-295 CNS is < 0.1 nM and 339 nM; with SN12C renal, < 0.1 nM and > 100 µM.

With `CCC(C)C1NC(=O)C(NC(=O)C(CC(C)C)N(C)C(=O)[C@@H]2CCCN2)C(C)OC(=O)[C@H](Cc2ccc(OC)cc2)N(C)C(=O)[C@@H]2CCCN2C(=O)[C@H](CC(C)C)NC(=O)C(C)C(=O)[C@H](C(C)C)OC(=O)CC1O` (stereo partly specified) (H-P[ξNMeL][ξT][X4]LP[NMeY](Me); ester 3-C), the TGI was 2.48 nM and 11.8 µM with HCT-116 colon; 1.32 nM and 12.5 µM with COLO 205 colon; 3.26 nM and 154 nM in the assay on NCI-H460 lung; 14.7 nM and 857 nM in the assay with DU-145 prostate; 9.84 nM and 10.2 µM with MCF7 breast; 4.18 nM and 1.23 µM in the assay with T-47D breast. Further, the TGI was 15.6 nM and 254 nM in the assay with MDA-MB-231 breast; 8.35 nM and 212 nM with RPMI-8226 leukemia; 4.37 nM and 10.1 µM with SN12C renal.

Take `O=c1ccn(C2OC(CO)C(O)C2O)c(=O)[nH]1` (stereo unspecified): in the assay on UO-31 renal, the GI50 is 165 nM [sample A, 1 test] and 906 µM [sample B, 1 test]; the TGI was 8.91 µM [sample A, 1 test] and > 1 mM [sample B, 1 test]. Moreover, in the assay with A498 renal, the GI50 is 1.7 µM [sample A, 1 test] and > 1 mM [sample B, 1 test].
